# Test results from the supplement of paper PMC3334620.
# Over roughly 33,000 sequences, “E-score (-0.5 to 0.5)” has its median near -0.032; the highest 2% begin near 0.36. The list shows a part of the results.
# Biological target: T1, Sko1 (UniProt Q02100)
# T1 sequence: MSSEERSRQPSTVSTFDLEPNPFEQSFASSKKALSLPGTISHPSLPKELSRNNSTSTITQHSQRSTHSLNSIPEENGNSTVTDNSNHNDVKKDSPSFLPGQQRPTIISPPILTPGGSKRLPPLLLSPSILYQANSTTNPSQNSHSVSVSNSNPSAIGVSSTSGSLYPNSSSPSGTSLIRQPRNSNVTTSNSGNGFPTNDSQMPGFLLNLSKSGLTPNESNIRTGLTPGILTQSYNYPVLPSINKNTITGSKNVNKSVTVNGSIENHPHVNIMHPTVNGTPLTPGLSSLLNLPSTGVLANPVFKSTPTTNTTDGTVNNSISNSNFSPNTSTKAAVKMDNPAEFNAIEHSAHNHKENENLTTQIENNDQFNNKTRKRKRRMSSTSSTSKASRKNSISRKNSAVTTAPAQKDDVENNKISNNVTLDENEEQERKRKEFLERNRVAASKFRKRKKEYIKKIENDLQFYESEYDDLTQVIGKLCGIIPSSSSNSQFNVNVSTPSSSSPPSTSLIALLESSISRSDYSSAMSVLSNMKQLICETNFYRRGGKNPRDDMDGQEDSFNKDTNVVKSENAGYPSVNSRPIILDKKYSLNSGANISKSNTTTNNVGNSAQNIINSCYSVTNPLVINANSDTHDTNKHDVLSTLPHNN
# Test: PBM E-score (8-mer binding enrichment) (E-score (-0.5 to 0.5)); higher = stronger / more preferred TF binding; most listed sequences are background and not binding sites
# Details: protein concentration: 200 nM; construct: GST-full length
# How it was run: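 For each ungapped eight-base word taken together with its reverse complement, the Universal PBM Analysis Suite assigned an E-score. Binding data came from GST-tagged yeast transcription factors, applied at about 100-200 nM, on universal all-10-mer Agilent arrays made double-stranded by primer extension. Fluorescent anti-GST marked bound protein, and scans were normalised with masliner.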
row,Sequence,PBM E-score
1,GATTTGGA,-0.0652
2,GAGTAACA,0.0215
3,ATCTTCTA,0.061
4,AAGGGTCA,-0.199
5,ACGGAAGC,0.0411
6,CACCCTGC,-0.0877
7,GCATTCCC,-0.132
8,TACCTCAA,0.064
9,CGCCAGCG,-0.165
10,AAGGTTTA,-0.0389
11,TTGTGAAA,0.119
12,ACATGATC,0.181
13,ATATTCCC,-0.00863
14,GAATTGCC,-0.145
15,ACATACCC,0.0834
16,GCAAAGGA,-0.0167
17,ATCAACTA,0.248
18,CAAGAGGA,0.0173
19,GACCAACC,-0.0838
20,AAAGCAGA,0.0185
21,CCTTAAAG,-0.05
22,ATACAGAA,0.0653
23,CATGGCGG,-0.126
24,CCGTGGCG,-0.153
25,CATTTAGG,-0.169

row,Sequence,PBM E-score
1,AGCTGGTG,-0.171
2,GCTTCGGA,-0.0658
3,CGCGGCTC,-0.189
4,CCGTTCGA,-0.0336
5,CTGCAGAA,0.0488
6,GATTATGA,0.203
7,CAAGTTCA,-0.00936
8,CAGATGCA,-0.168
9,AACCACGA,-0.0344
10,CATAACCC,-0.196
11,AGAAACAA,0.168
12,CTTGCAAA,-0.094
13,GAATTGTA,0.0665
14,CCCGCCGA,-0.214
15,ACATTAAG,0.141
16,ACCGGTTA,0.0435
17,GGAGGCTA,-0.238
18,CCCAAGGC,-0.256
19,GTTGGGTA,-0.0431
20,ATAATCGC,0.0907
21,CCAAAAAG,-0.0574
22,GTGTTATA,0.184
23,ACCACGGG,-0.243
24,AATTTTAC,0.312
25,GCCCCCCC,-0.4

row,Sequence,PBM E-score
1,AATTAGCT,0.108
2,CTGCGGAA,-0.197
3,AGCGCGAA,0.13
4,GATATTCA,-0.0346
5,AGGGTTCG,-0.225
6,TCCTTGAA,-0.114
7,ACGGATAT,0.176
8,CCAGGTCC,-0.402
9,TATTGACA,0.178
10,ACAGCCCT,-0.259
11,CGACATCG,0.21
12,GTTATCTA,0.113
13,CTCTCACC,-0.0114
14,AACACCGT,-0.165
15,GACCAGCA,-0.185
16,CCCTCTTA,-0.154
17,CAACGTAC,0.326
18,AAGGCTTG,-0.0724
19,CCAGCGGA,-0.361
20,ACTAAATA,0.167
21,CGATAGCG,-0.13
22,ACGCATGC,0.319
23,CTATAATA,-0.0473
24,AGGGGTAT,-0.361
25,CAAGCATA,0.0343

row,Sequence,PBM E-score
1,GTCGCGGA,-0.288
2,AACATAGC,-0.0664
3,CACATCCA,0.0329
4,GCATAGGC,-0.159
5,ACGCCGTA,0.0587
6,ACAACACT,0.0913
7,CCAAATAC,0.0904
8,CTCGGAAA,-0.0573
9,CTTGCAGA,-0.0456
10,GGATGTTA,0.0128
11,GTAAAAGA,0.242
12,ACCAAAGT,-0.00709
13,TTCCTCAA,-0.0344
14,ACAGCTGG,-0.182
15,CGAAGCAG,-0.0386
16,AACCAGTG,-0.162
17,GAAAGCGC,-0.0196
18,GAACCTTC,-0.189
19,CTAATTTA,0.261
20,CCTAGACG,0.134
21,CACTGCAG,-0.064
22,AGATTCGC,0.133
23,ATACCACG,0.195
24,ATGGCGTG,0.336
25,CGTGTACA,0.319

row,Sequence,PBM E-score
1,CACTTTAA,0.14
2,CCGCCGCG,-0.187
3,ATCCTTTG,-0.0173
4,ACCTTTTA,-0.0142
5,GTATGCAC,0.182
6,CACTTTTC,0.0153
7,GATCGGCC,-0.132
8,CCTGGATA,-0.216
9,ATGCCCGG,-0.334
10,AAAATCCT,-0.0331
11,ACCAGCTC,-0.0776
12,CGTCAACG,0.389
13,ACATCGCG,0.214
14,TAAGTTAA,0.134
15,TCGGTAAA,0.075
16,CCTGCCGC,-0.199
17,GATTGTGC,-0.164
18,ACTGACGA,0.364
19,AGATACTC,0.0307
20,AGTCTCCG,-0.0847
21,GAAAAATA,0.201
22,GCTGCCAC,-0.0429
23,AAGGACAT,0.0657
24,GAGTACTC,-0.261
25,GCAGTGTA,0.1

row,Sequence,PBM E-score
1,TGGTGGAA,-0.086
2,AACACTCA,-0.0484
3,AGGAGCCA,-0.258
4,ACAGGCCG,-0.264
5,AGTCTTGA,-0.072
6,AACTGGAC,0.00123
7,ATACGCAA,0.447
8,ACTGGGGA,-0.277
9,CGATTCAC,0.124
10,AAGAAGCG,-0.203
11,AGGACACG,-0.0653
12,AATTATCA,0.28
13,AATAAGCA,0.121
14,GAACGAGC,-0.0808
15,AGGGTCGC,-0.188
16,CCGGGCTC,-0.44
17,ACGCCAAG,-0.0349
18,GCGGGAAC,-0.246
19,GATGGTGA,0.126
20,CCCACCAC,-0.119
21,GACTGCGA,-0.144
22,AACCTCCA,-0.377
23,CACGAACG,0.0658
24,CGCTGGAG,-0.272
25,CTAACGTC,0.338

row,Sequence,PBM E-score
1,GAGTGACA,0.117
2,GAGGACTA,-0.236
3,ATCTACCA,0.0297
4,ACCGCCTG,-0.251
5,ATGCCTAA,0.00572
6,GCTGCTGA,-0.0842
7,AGGTGCGA,-0.0564
8,AGAAAGAA,-0.0484
9,ATTTTTCC,-0.00951
10,CTGGAAGA,-0.118
11,AACCCCAG,-0.338
12,AACTGCGA,-0.148
13,AACCCCCG,-0.362
14,TCATTCGA,0.229
15,TAGATAGA,0.0341
16,AAACCGGG,-0.07
17,CCAACGCC,-0.221
18,ATTGCAAC,0.00403
19,CAAGCTGG,-0.243
20,CTAGTTCA,-0.0321
21,AGGGATAG,-0.141
22,AGATCGGC,-0.262
23,AGATGTAG,0.0176
24,CTTTTTGC,-0.0988
25,AGTCACAC,-0.0301

row,Sequence,PBM E-score
1,TACTGATA,0.0497
2,GCGCGTAA,0.336
3,ATTTAGAC,0.162
4,AAAGAACC,-0.0929
5,AAAGGCCT,-0.202
6,GCAGCGTA,-0.0487
7,AACTTTCA,0.248
8,GCTCTCCA,-0.272
9,CTGACCGA,-0.257
10,ACGGAGAC,-0.102
11,GCTAGCGA,-0.0668
12,ACAAAGCG,-0.00371
13,GATTAACA,0.218
14,ACCGAACC,-0.372
15,ATGCTAGA,0.0343
16,GGCGTATA,0.148
17,AAGTTATA,0.0874
18,ACAGCCGT,-0.112
19,CGTAGGAA,0.158
20,AGTTTCGA,-0.055
21,CCATTGGC,-0.297
22,ATTAGCAG,-0.282
23,ATTACTAC,0.275
24,TCGCGCCA,-0.0532
25,TCATTAGA,0.189

row,Sequence,PBM E-score
1,AGACCTGG,-0.199
2,CGGCTCGA,-0.0924
3,ATGGATGG,-0.249
4,ATTACCGG,-0.138
5,CATCCTGG,-0.0995
6,TCTAGTAA,0.13
7,ACTCGGGC,-0.195
8,GATGCACA,0.081
9,GTTGTCGA,0.0522
10,ATTTCCCC,-0.102
11,AGCACATA,0.0436
12,ATGATGTA,0.459
13,ATGCTTTC,0.135
14,ACGGACCG,-0.37
15,GAACTTGA,0.106
16,GGTATTTA,0.0513
17,AAAAGAAG,0.0256
18,GATGATCC,-0.0343
19,CTATAGAA,0.0102
